In assay [1] the target is T1, Transmembrane activator and CAML interactor (TACI) on cells (UniProt O14836 1-293, limits assumed).
T1 construct: whole, on cells; also called tumor necrosis factor receptor superfamily member 13B (TNFRSF13B)
T1 sequence (looked up): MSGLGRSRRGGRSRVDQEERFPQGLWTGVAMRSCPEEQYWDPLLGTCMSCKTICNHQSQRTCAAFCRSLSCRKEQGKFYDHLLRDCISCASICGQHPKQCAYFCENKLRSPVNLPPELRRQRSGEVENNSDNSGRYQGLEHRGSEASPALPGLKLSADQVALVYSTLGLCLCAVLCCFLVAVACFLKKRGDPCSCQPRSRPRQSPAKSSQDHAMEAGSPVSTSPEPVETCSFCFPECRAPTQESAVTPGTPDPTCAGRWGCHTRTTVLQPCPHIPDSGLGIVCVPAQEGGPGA
The assay is described as follows: flow cytometry on JVM2 cells (endogenous TACI). Here is the method: (§1) Cells were spun down at 1200 rpm for 6 minutes at 4° C. to remove primary antibodies. Cells were then washed once with 200 μL of full medium per well. Samples were detected with premixed anti-His Biotin Streptavidin Alexa fluor 647 by adding 100 μL of diluted secondary antibody and incubated at 4° C. for 30 minutes in the dark. Samples were spun down at 1200 rpm for 5 minutes at 4° C. and washed twice with 200 μL of 1×PBS per well. Reconstituted samples in 200 μL of 1×PBS and read on Attune NxT cytometer. Analysis was done by Attune NxT software plotting the overlaying the histogram of anti-BCMA scFvs binding onto both negative and target cell lines. […] The BCMA cell binding affinity for exemplary anti-BCMA antibodies (in scFv format) was also generated with serial diluted scFvs as described above.
(§2) Anti-TACI scFv binders have been identified through Anti-TACI supernatant FACS screening assay with JVM2, MM1.R and RPMI8226 cell lines as described in above supernatant FACS screening assay. 200 nM of purified scFvs were subjected into FACS binding assay with TACI negative cell lines K562, H929 and TACI expressing cancer cell lines of JVM2, MM1.R, RPMI8226. The assay procedure and data analysis were described in Example 1 above.
A general note: Flow cytometry measures light scatter and fluorescence of single cells or particles in a stream.

Assay [2] concerns the target T1, Transmembrane activator and CAML …. The assay is described as follows: flow cytometry on MM1S cells (endogenous TACI).
Assay [3] shares this target. The assay can be described thus: flow cytometry on RPMI8226 cells (endogenous TACI). Here is the method: as §1, §2
Assay [4] has the same target. The assay is described as follows: flow cytometry on MM1R cells (endogenous TACI). The method, then: as §1, §2
Assay [5] concerns the target T2, Human BCMA-Fc (human, UniProt Q02223 1-54).
T2 construct: also called human BCMA-Fc protein; recombinant BCMA-Fc fusion protein; not shown: Fc part (captured by anti-human Fc antibody or Protein A)
T2 sequence (looked up): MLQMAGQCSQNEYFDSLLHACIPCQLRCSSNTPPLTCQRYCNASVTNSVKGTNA
The assay can be described thus: SPR, Biacore T200, BCMA-Fc captured on Protein A chip, scFv as analyte. Here is the method:
Kinetic analysis of anti-BCMA scFvs have been assessed by SPR technology with Biacore T200. The assay was run with Biacore T200 control software version 2.0. Protein A sensor chip was used to capture Fc fusion protein in the assay. For each cycle, 1 μg/mL of human BCMA-Fc protein was captured for 60 seconds at flow rate of 10 ul/min on flow cell 2 in 1×HBSP buffer on Protein A sensor chip. 2-fold serial diluted HIS tag purified anti-BCMA scFv was injected onto both reference flow cell 1 and BCMA-Fc captured flow cell 2 for 150 seconds at flow rate of 30 ul/min followed by wash for 300 seconds. The flow cells were then regenerated with Glycine pH2 buffer (GE) for 30 seconds at flow rate of 30 ul/mins. 8 concentration points from 300-0 nM was assayed per anti-BCMA scFv in a 96 well plate. The kinetics of scFvs binding to BCMA protein was analyzed with Biacore T200 evaluation software version 3.0. The specific binding response unit was derived from subtraction of binding to reference flow cell 1 from BCMA captured flow cell 2.
On the technique in general: In SPR one partner is held on a chip, and binding of the other changes the refractive index at the surface.

Assay [6] has as its target T3, B Cell Maturation Antigen (BCMA) on cells (UniProt Q02223 1-184, limits assumed).
T3 construct: whole, on cells; One molecule is used for the recombinant (CHOK1) and the endogenous (myeloma lines) cell-surface BCMA; also called tumor necrosis factor receptor superfamily member 17 (TNFRSF17); CD269
T3 sequence (looked up): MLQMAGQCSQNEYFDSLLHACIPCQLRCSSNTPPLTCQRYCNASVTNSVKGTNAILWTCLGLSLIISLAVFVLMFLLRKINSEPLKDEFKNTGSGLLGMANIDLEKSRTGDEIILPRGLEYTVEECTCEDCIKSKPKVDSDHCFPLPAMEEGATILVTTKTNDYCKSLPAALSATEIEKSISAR
The assay can be described thus: flow cytometry, serial diluted scFv on BCMA/CHOK1 cells. Here is the method: as §1

In assay [7] the target is T2, Human BCMA-Fc. The assay can be described thus: ELISA, human BCMA-Fc captured by anti-human Fc, scFv detected with anti-Flag HRP. The method, then: An ELISA assay was developed to determine the EC₅₀ of anti-BCMA antibodies. Briefly, 384 well plate was immobilized with anti-human Fc antibody at final concentration of 2 μg/mL in 1×PBS in total volume of 25 uL per well. The plate was incubated overnight at 4° C. followed by blocking with 80 μL of superblock per well for 1 hour. Human BCMA-Fc was captured through immobilized anti-hFc antibody. Purified anti-BCMA scFvs were 2-fold serial titrated from 200 nM. 25 μL of diluted scFv was added to human BCMA immobilized wells and incubated for 1 hour with shaking. The BCMA binding was detected by adding 25 μL of anti-Flag HRP diluted at 1:5000 in 1×PBST. In between each step, the plate was washed 3 times with 1×PBST in a plate washer. The plate was then developed with 20 μL of TMB substrate for 5 mins and stopped by adding 20 μL of 2 N sulfuric acid. The plate was read at OD450 nm Biotek plate reader and then plotted in Prism 8.1 software.

B1: TC-01 (anti-TACI antibody in scFv format) (scFv, not shown: small tags and cut ends)
scFv: [about 100 residues omitted here]DDGTGYNAFDIWGQGTMVTVSSGGGGSGGGGSGGGGSDIVMTQSPLSLPVTPGEPASISCRSSQSLLHSNGYNYLDWYVQKPGKPPQLLIYLASHRASGVPDRFSGSGSGTDFTLKISRVEAEDVGIYYCMQAQQTALFGPGTKVDIK
notes: Human scFv from mRNA display (live cell selections), VH-(G4S)3-VL
The term EC50 denotes the concentration that produces a half-maximal response. A lower EC50 goes with a more potent agent. Turning to B1, the EC50 amounted to 4.3 nM in assay [1], 13.4 nM in assay [2], 1.07 nM in assay [3] and 8.67 nM in assay [4].

B2: BC-04 (anti-BCMA antibody in scFv format) (scFv)
scFv: EVQLVESGGGLVQPGRSLRLSCTASGFTFGDYAMSWFRQAPGKGLEWVGFIRSKAYGGTTEYAASVKGRFTISRDDSKSIAYLQMNSLKTEDTAVYYCTPGPHYDILTSNWFDPWGQGTLVTVSSGGGGSGGGGSGGGGSDIVMTHSPSSLSASVGDRVTIT[about 80 residues omitted here]FGQGTKVEIK
notes: Human scFv from mRNA display, VH-(G4S)3-VL, expressed in E. coli periplasm, His-purified; not shown: C-terminal flag and 6xHis tag
For orientation: Kd means the concentration at which binding is half-saturated. A higher Kd goes with a looser complex. A word on the koff: it is the rate constant with which the complex falls apart. Low values mean a long-lived complex, high ones a short-lived complex. As usually defined, the kon is the second-order rate constant of association. Higher therefore signals faster complex formation. In the assay with Human BCMA-Fc [5], B2 had a Kd of 7.68 nM, a koff of 0.000874 s⁻¹ and a kon of 114000 M⁻¹ s⁻¹. Moreover, the EC50 in assay [6] came out at 69.7 nM. In addition, in the assay with Human BCMA-Fc [7], the EC50 was determined as 1.96 nM.

The values are drawn from patent US20260097076A1 (ELPIS BIOPHARMACEUTICALS, published 2026).
